Where “and” joins values, the source holds several entries; their conditions need not be identical. Identical values can stand only once. Inconclusive results, whose numbers are uncertain, are shown with a selection of clear calls. For part of these data: A potency beside an inconclusive call is a rough fit, not a confirmed value. Calls of active or inactive are those of the source. Unless noted, the call rests on the fitted dose curve; in most records, active means well fitted curve in the direction sought with a large enough effect in the repeat runs; inconclusive means weak or mixed curves; inactive means no such curve, though single readings can be large; an effect the other way counts as inactive or inconclusive.
Experiments:
[1] = qHTS assay for small molecule agonists of the p53 signaling pathway (AID 651631; calls by dose curve; further: nearly all actives have a fitted effect of over 15% in size; further: potency means the concentration at half of the fitted maximal effect; on activation: on the % scale 0 is the no-effect control and ±100 the full control effect); settings: HCT-116 p53RE-bla reporter, beta-lactamase FRET ratio, 16 h; activation: at 73.3 µM (top of the series) unless noted
Procedure, shortened: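 Testing took place in human colorectal HCT-116 cells with stable p53RE-driven beta-lactamase. After 16 h of compound exposure at 37 °C, a FRET substrate was added and fluorescence recorded 2 h later.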

[2] = qHTS assay for small molecule disruptors of the mitochondrial membrane potential (AID 720635); settings: HepG2 mitochondrial membrane potential, Mito-MPS dye ratio; further: potency means the concentration at half of the fitted maximal effect
Procedure, shortened: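 HepG2 cells (2,000/well) attached overnight at 37C, then took compound for 1 hr at 37C, 5% CO2. Mito-MPS dye was added for 30 min; fluorescence was read at 490/535 nm (monomers) and 540/590 nm (aggregates).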

[3] = qHTS assay for identifying genotoxic compounds that show differential cytotoxicity against isogenic chicken DT40 cell lines with known DNA damage response pathways - Rev3 mutant cell line (AID 743014); settings: chicken DT40 Rev3-/- viability, CellTiter-Glo, 40 h; activity, negative = cytotoxicity: at 68.4 µM (top of the series) unless noted; further: nearly all actives have a fitted effect of over 55% in size; further: potency means the concentration at half of the fitted maximal effect
[4] = biological target: Estrogen receptor (Homo sapiens) (UniProt P03372); assay: qHTS assay to identify small molecule agonists of the estrogen receptor alpha (ER-alpha) signaling pathway using the BG1 cell line (AID 743079); settings: BG1Luc4E2 cells, ERE-luciferase agonist, 22 h; activation: at 70.3 µM (top of the series) unless noted; further: on the % scale 0 is the no-effect control and ±100 the full control effect; nearly all actives have a fitted effect of over 20% in size
Sequence of UniProt P03372 (P03372 whole entry, looked up): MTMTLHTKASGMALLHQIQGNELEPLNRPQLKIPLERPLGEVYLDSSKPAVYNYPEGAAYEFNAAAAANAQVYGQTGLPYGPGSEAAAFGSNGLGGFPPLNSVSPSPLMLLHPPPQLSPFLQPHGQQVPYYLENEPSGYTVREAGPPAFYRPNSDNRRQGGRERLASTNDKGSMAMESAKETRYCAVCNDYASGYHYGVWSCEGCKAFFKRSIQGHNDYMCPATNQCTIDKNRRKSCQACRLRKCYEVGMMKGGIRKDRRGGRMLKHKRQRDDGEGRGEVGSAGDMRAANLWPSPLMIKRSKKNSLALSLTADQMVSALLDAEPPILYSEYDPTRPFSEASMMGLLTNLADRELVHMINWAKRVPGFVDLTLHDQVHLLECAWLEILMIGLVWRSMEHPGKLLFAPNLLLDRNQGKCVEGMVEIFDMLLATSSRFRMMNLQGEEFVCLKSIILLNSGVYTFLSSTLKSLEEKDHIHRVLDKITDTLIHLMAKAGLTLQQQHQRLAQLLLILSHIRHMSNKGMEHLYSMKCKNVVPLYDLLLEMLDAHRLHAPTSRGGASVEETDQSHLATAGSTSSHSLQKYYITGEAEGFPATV

[5] = biological target: Peroxisome proliferator-activated receptor gamma (Homo sapiens) (UniProt P37231); assay: qHTS assay to identify small molecule antagonists of the peroxisome proliferator-activated receptor gamma (PPARg) signaling pathway (AID 743191; calls by dose curve; further: nearly all actives have a fitted effect of over 30% in size; further: potency means the concentration at half of the fitted maximal effect); settings: HEK293H PPARg-UAS-bla, beta-lactamase ratio, antagonist, 17 h; ratio activity, negative = inhibition: at 62.6 µM (top of the series) unless noted
Sequence of UniProt P37231 (P37231 whole entry, looked up): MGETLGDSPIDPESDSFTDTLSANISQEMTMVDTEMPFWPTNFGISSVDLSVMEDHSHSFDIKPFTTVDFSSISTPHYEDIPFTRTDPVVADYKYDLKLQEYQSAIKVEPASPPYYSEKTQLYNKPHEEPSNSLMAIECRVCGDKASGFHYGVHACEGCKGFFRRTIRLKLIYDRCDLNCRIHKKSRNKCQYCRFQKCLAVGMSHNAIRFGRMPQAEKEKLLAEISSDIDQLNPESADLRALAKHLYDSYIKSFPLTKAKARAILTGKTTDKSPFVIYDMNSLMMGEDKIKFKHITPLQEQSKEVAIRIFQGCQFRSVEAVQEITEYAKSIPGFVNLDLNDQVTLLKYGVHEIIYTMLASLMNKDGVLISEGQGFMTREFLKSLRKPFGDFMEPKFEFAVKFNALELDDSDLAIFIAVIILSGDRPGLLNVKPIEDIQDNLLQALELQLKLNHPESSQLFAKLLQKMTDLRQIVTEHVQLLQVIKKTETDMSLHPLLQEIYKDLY
Procedure, shortened: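 GeneBLAzer PPARg UAS-bla HEK293H cells carrying a UAS-driven beta-lactamase reporter were plated at 3000 cells/well, preincubated 5 h at 37C, then given compound for 17 h at 37C; LiveBLAzer B/G FRET substrate was read after 1 h at room temperature.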

[6] = qHTS assay for small molecule agonists of the antioxidant response element (ARE) signaling pathway (AID 743202; active means well fitted activation curve with a large enough effect in the signal ratio in the repeat runs, not every such curve was filed as active; inconclusive means weak or mixed curves, or effect the other way; inactive means no such curve, though single readings can be large or run the other way; the % refers to the signal ratio; further: potency means the concentration at half of the fitted maximal effect); settings: HepG2 ARE-bla reporter, beta-lactamase FRET, 16 h; activation: at 73.3 µM (top of the series) unless noted
Procedure, shortened: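 Steps: seed ARE-bla HepG2 cells (2,000/well); incubate 5 h at 37 C; add compounds by pin tool; incubate 16 h at 37 C; add FRET substrate; read fluorescence after 2 h at RT.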

[7] = biological target: Vitamin D3 receptor (Homo sapiens) (UniProt P11473); assay: qHTS assay to identify small molecule antagonists of the vitamin D receptor (VDR) signaling pathway (AID 743223; active means well fitted inhibition curve with a large enough effect in the signal ratio in the repeat runs, not every such curve was filed as active; inconclusive means weak or mixed curves, or effect the other way; inactive means no such curve, though single readings can be large or run the other way; the % refers to the signal ratio; further: on the % scale 0 is the no-effect control and ±100 the full control effect); settings: VDR-UAS-bla HEK293T, beta-lactamase FRET ratio, 16 h; activity change, negative = inhibition: at 61 µM (top of the series) unless noted
Sequence of UniProt P11473 (P11473 whole entry, looked up): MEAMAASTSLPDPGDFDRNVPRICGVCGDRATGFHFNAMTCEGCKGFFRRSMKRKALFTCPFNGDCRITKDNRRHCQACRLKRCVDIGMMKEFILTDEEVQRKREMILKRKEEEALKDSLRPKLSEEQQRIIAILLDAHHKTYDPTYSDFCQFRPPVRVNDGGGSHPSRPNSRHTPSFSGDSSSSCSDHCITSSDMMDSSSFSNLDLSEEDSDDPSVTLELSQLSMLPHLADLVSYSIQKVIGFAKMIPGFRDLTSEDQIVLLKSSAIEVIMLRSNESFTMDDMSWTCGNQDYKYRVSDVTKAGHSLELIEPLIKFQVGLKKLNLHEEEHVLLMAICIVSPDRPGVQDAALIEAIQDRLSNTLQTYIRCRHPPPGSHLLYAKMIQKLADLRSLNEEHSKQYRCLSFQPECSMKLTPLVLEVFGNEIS
Procedure, shortened: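 Quantitative HTS in VDR-bla reporter cells stimulated with 1alpha,25-dihydroxyvitamin D3, 3 nM final. Compound exposure 16 h, 37C, 5% CO2. Read-out: beta-lactamase FRET substrate fluorescence, 2 h RT.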

[8] = qHTS assay to identify small molecule agonists of the retinoic acid receptor (RAR) signaling pathway (AID 1159553); settings: C3RL4 RARE luciferase reporter, agonist, 6 h; activation: at 73.3 µM (top of the series) unless noted; further: potency means the concentration at half of the fitted maximal effect
Procedure, shortened: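 Luminescence was measured 30 min after luciferase reagent addition at room temperature. Before that, C3RL4 reporter cells (1,000 per well, plated overnight) were treated with compound for 6 hr at 37 C and 5% CO2.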

[9] = qHTS assay to identify small molecule agonists of the progesterone receptor (PR) signaling pathway - cell viability counter screen (AID 1346799; calls by dose curve; further: nearly all actives have a fitted effect of over 45% in size; further: potency means the concentration at half of the fitted maximal effect)
Procedure, shortened: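 In parallel with the beta-lactamase readout, cytotoxicity toward PR-UAS-bla HEK293T cells was measured by CellTiter-Glo luminescence following 16 hr compound incubation in 2% charcoal-stripped FBS medium.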

[10] = biological target: Cytochrome P450 2C9 (Homo sapiens) (UniProt P11712); assay: Cytochrome P450 Family 2 Subfamily C Member 9 (CYP2C9) small molecule antagonists: luciferase reporter qHTS assay (AID 1671198); further: nearly all actives have a fitted effect of over 50% in size; further: potency means the concentration at half of the fitted maximal effect
Sequence of UniProt P11712 (P11712 whole entry, looked up): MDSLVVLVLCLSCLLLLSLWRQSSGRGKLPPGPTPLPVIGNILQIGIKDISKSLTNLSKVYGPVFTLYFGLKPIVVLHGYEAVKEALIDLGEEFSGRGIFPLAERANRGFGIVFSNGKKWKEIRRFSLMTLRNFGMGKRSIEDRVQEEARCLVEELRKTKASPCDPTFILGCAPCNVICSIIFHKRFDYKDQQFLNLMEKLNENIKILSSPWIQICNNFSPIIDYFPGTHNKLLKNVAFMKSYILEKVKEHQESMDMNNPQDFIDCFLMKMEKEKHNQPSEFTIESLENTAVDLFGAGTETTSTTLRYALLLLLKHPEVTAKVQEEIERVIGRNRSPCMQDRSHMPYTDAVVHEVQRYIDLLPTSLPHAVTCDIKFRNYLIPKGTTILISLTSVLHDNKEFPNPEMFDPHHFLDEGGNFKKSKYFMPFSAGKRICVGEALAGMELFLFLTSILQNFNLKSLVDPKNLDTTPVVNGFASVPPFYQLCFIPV
Procedure, shortened: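 CYP2C9 activity was measured with a P450-Glo proluciferin substrate. Enzyme–substrate mix was held with compound for 10 min at room temperature, then NADPH regeneration solution was added for 1 h at 37C. Luciferin product was read as luminescence.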

[11] = biological target: Cytochrome P450 1A2 (Homo sapiens) (UniProt P05177); assay: Cytochrome P450 Family 1 Subfamily A Member 2 (CYP1A2) small molecule antagonists: luciferase reporter qHTS assay (AID 1671199); further: nearly all actives have a fitted effect of over 50% in size; further: potency means the concentration at half of the fitted maximal effect
Sequence of UniProt P05177 (P05177 whole entry, looked up): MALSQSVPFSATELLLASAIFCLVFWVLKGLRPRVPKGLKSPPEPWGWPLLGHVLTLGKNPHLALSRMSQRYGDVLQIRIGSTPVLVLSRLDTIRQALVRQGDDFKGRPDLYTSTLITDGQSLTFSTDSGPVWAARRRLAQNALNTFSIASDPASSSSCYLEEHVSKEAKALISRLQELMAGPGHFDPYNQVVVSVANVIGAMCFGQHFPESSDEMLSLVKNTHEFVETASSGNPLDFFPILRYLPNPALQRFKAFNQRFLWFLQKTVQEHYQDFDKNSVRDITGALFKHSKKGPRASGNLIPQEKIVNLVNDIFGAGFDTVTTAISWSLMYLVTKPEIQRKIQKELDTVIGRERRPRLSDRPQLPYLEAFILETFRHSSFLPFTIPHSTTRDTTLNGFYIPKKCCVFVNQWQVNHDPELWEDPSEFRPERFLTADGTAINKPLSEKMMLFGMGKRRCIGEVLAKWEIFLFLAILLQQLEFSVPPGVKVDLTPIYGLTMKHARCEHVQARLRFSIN
Procedure, shortened: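 Luminescence from luciferin formed by CYP1A2 from a proluciferin substrate, read 20 min after detection reagent. Compound was pre-incubated 10 min with enzyme-substrate, and reaction started with NADPH regeneration solution for 1 h at room temperature; furafylline control.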

[12] = qHTS assay to identify small molecule antagonists of the sonic hedgehog signaling (Shh) pathway (AID 1259369; calls by dose curve; further: potency means the concentration at half of the fitted maximal effect; nearly all actives have a fitted effect of over 45% in size)
Procedure, shortened: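 Antagonist mode: compound added to 3T3 Gli1-Luc cells followed by conditioned-medium stimulation, 24 h at 37 C, 5% CO2. Inhibition taken as loss of Gli1-driven luciferase luminescence.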

[13] = biological target: Glucocorticoid receptor (Homo sapiens) (UniProt P04150); assay: qHTS assay to identify small molecule antagonists of the glucocorticoid receptor (GR) signaling pathway (AID 720692; active means well fitted inhibition curve with a large enough effect in the signal ratio in the repeat runs, not every such curve was filed as active; inconclusive means weak or mixed curves, or effect the other way; inactive means no such curve, though single readings can be large or run the other way; the % refers to the signal ratio; further: on the % scale 0 is the no-effect control and ±100 the full control effect); settings: GR-bla HeLa, beta-lactamase FRET ratio, dexamethasone-stimulated, 18 h; activity change, negative = inhibition: at 58.5 µM (top of the series) unless noted
Sequence of UniProt P04150 (P04150 whole entry, looked up): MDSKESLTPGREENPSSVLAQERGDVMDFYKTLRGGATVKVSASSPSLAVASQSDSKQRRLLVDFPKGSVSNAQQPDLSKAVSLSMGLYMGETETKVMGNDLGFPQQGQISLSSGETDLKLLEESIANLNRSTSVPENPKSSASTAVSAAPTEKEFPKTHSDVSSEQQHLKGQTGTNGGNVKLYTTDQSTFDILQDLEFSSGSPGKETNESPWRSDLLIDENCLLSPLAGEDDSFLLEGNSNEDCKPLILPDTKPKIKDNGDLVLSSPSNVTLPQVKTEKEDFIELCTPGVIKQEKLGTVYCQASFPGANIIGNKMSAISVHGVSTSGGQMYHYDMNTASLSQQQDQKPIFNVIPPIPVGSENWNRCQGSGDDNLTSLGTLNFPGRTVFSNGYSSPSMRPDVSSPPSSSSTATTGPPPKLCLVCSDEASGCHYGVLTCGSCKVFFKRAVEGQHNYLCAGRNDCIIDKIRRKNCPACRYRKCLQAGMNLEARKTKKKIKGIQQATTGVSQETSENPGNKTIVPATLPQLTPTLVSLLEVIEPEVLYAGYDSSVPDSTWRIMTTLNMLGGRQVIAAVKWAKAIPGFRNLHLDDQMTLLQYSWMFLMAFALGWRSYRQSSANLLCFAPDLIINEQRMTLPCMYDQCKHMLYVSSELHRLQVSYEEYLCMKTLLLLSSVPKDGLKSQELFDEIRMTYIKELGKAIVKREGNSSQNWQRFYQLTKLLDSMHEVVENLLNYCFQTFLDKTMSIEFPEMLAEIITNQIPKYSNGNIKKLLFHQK
Procedure, shortened: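 Inhibition of dexamethasone-driven (5 nM final) beta-lactamase expression was measured in GRE-reporter HeLa cells over 18 h at 37C. Fluorescence was read after 2 h with the B/G FRET substrate at room temperature.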

[14] = biological target: Cytochrome P450 2D6 (Homo sapiens) (UniProt P10635); assay: Cytochrome P450 Family 2 Subfamily D Member 6 (CYP2D6) small molecule antagonists: luciferase reporter qHTS assay (AID 1671196); further: nearly all actives have a fitted effect of over 50% in size; further: potency means the concentration at half of the fitted maximal effect
Sequence of UniProt P10635 (P10635 whole entry, looked up): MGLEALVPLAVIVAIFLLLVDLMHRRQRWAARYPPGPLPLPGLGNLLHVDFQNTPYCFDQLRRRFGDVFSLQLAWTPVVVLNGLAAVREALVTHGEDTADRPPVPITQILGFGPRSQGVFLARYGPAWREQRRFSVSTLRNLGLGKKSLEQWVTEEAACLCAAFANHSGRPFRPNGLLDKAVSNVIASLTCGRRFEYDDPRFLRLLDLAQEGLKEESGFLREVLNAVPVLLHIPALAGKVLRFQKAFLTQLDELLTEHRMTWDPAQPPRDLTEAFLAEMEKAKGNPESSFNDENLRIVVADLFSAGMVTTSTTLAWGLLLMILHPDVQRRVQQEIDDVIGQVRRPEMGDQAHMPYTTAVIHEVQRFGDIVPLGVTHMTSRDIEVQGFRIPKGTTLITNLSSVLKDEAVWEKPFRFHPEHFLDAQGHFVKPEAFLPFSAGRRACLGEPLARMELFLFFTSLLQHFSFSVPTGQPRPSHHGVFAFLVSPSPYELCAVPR
Procedure, shortened: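 CYP2D6 activity was followed as luminescence from its luciferin product after a 1 h NADPH-driven reaction at room temperature. Enzyme-substrate mix and compound were pre-incubated for 10 min, and the signal was read 20 min after adding detection reagent.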

[15] = biological target: Estrogen receptor beta (Homo sapiens) (UniProt Q92731); assay: qHTS assay to identify small molecule antagonists of the estrogen receptor beta (ER-beta) signaling pathway (AID 1259378; active means well fitted inhibition curve with a large enough effect in the signal ratio in the repeat runs, not every such curve was filed as active; inconclusive means weak or mixed curves, or effect the other way; inactive means no such curve, though single readings can be large or run the other way; the % refers to the signal ratio; further: potency means the concentration at half of the fitted maximal effect); settings: ER-beta-UAS-bla HEK293T, beta-lactamase FRET ratio, 16 h; activity, negative = inhibition: at 92.4 µM (top of the series) unless noted
Sequence of UniProt Q92731 (Q92731 whole entry, looked up): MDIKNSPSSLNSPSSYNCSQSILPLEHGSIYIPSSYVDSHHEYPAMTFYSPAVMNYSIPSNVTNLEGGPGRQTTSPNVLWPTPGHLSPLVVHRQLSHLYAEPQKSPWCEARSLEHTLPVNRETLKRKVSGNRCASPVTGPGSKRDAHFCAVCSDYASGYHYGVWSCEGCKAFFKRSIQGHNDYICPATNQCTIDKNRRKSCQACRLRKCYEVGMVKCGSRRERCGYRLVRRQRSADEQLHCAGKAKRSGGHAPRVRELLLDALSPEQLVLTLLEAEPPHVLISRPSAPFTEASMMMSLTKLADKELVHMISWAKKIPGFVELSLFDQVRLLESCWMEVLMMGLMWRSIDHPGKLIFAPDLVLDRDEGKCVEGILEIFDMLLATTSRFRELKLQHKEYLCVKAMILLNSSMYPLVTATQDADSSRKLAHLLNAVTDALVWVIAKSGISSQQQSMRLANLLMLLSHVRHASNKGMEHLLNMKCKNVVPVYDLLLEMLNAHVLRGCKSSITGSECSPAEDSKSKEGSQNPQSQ
Procedure, shortened: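 ER-beta-UAS-bla HEK293T (GripTite) cells in 2% charcoal-stripped FBS medium were preincubated 6 hr at 37C, dosed with compound, then stimulated with 1 nM E2 (final) for 16 hr; beta-lactamase reporter read by B/G FRET fluorescence after 2 hr substrate loading.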

[16] = biological target: Progesterone receptor (Homo sapiens) (UniProt P06401); assay: qHTS assay to identify small molecule antagonists of the progesterone receptor (PR) signaling pathway (AID 1346795; active means well fitted inhibition curve with a large enough effect in the signal ratio in the repeat runs, not every such curve was filed as active; inconclusive means weak or mixed curves; the % refers to the signal ratio; further: on the % scale 0 is the no-effect control and ±100 the full control effect); settings: PR-UAS-bla HEK293T, beta-lactamase FRET ratio, 16 h; activity change, negative = inhibition: at 92.4 µM (top of the series) unless noted
Procedure, shortened: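 Fluorescence intensity measured 2 hr after adding beta-lactamase FRET substrate to PR-UAS-bla HEK293T cells that had been co-treated 16 hr with compound and 1 nM R5020 (final concentration) in 2% charcoal-stripped FBS.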

[17] = qHTS assay for identifying genotoxic compounds that show differential cytotoxicity against isogenic chicken DT40 cell lines with known DNA damage response pathways - wild type cell line (AID 743012); settings: DT40 wild type chicken cells viability, CellTiter-Glo, 40 h; activity change, negative = cytotoxicity: at 68.4 µM (top of the series) unless noted; further: potency means the concentration at half of the fitted maximal effect; nearly all actives have a fitted effect of over 60% in size
Procedure, shortened: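 Viability by ATP luminescence (CellTiter-Glo, 30 min RT) after 40 h compound treatment at 37 C/5% CO2, using 300 parental DNA repair-proficient DT40 cells per well.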

[18] = biological target: Cytochrome P450 2C19 (Homo sapiens) (UniProt P33261); assay: Cytochrome P450 Family 2 Subfamily C Member 19 (CYP2C19) small molecule antagonists: luciferase reporter qHTS assay (AID 1671197); further: on the % scale 0 is the no-effect control and ±100 the full control effect; nearly all actives have a fitted effect of over 65% in size
Sequence of UniProt P33261 (P33261 whole entry, looked up): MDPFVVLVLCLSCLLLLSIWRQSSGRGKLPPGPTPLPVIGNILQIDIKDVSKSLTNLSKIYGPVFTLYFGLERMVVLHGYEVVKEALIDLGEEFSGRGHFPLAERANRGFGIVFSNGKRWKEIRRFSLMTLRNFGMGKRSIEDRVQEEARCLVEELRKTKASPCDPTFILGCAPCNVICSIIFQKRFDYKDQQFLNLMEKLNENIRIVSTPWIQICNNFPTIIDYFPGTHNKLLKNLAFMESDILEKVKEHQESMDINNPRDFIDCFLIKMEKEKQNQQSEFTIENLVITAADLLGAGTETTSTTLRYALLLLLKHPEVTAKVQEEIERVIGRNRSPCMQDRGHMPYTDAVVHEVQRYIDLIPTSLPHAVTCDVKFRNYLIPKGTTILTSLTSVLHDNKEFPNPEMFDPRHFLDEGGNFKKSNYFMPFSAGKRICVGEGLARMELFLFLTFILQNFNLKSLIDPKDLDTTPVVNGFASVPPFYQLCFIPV
Procedure, shortened: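 Enzyme-substrate mix with proluciferin substrate (P450-Glo CYP2C19 system) preincubated with compounds 10 min at room temperature; NADPH regeneration solution added, 37C for 1 h; detection reagent stops reaction, luminescence read after 20 min. Ketoconazole positive control.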

[19] = ratio activity, negative = MMP loss: at 83.2 µM (top of the series) unless noted
Tags describe the fitted curve by direction and shape or compound fluorescence and quenching.

CC(=O)CC(C)(C)O
Potency [1]: inactive
ratio activity, negative = MMP loss ([2]; at 83.2 µM (top of the series)): inactive: 3.09%
ratio activity, negative = MMP loss [2, 19]: inconclusive: 23.1% [at 95.3 µM]
Potency [3]: inactive
Potency [4]: inactive
Potency [5]: inactive
Potency [6]: inactive
activity change, negative = inhibition [7]: inconclusive: 6.66%
activation [8]: inconclusive: -0.244% [phenotype inactive] [at 94.8 µM]
Potency [9]: inconclusive: 0.349 µM [cytotoxic, single point]
Potency [10]: inconclusive: 81 µM [inhibitor, single point]
Potency [11]: inconclusive: 64.3 µM [inhibitor, partial curve, poor fit]

COP(=O)(OC)OC(c1ccc(Cl)cc1)P(=O)(OC)OC (stereo not given)
Potency [3]: inconclusive: 23.7 µM [rising, partial curve, poor fit]
activation [8]: inconclusive: 5.58% [phenotype inactive]
Potency [12]: inconclusive: 37.6 µM [inhibitor, single point]
Potency [9]: inactive
Potency [10]: inactive

Nc1ncnc(Nc2ccccc2)n1
Potency [1]: inconclusive: 0.211 µM [activator, partial curve, poor fit]
activity change, negative = inhibition [13]: inconclusive: -10.9%
activation [4]: inconclusive: 13.7% [phenotype inactive]
Potency [6]: inconclusive: 26.6 µM [rising, partial curve, poor fit]
Potency [8]: inconclusive: 21.1 µM [activator, partial curve]
Potency [9]: inactive
Potency [14]: inconclusive: 43.6 µM [inhibitor, single point]
Potency [11]: inconclusive: 28.8 µM [inhibitor, partial curve]

CCn1cc(C(=O)O)c(=O)c2cnc(N3CCCC3)nc21
Potency [13]: inactive
activation [8]: inactive: 1.53% [at 8.36 µM]
activity, negative = inhibition [15]: inactive: 15.3% [at 8.39 µM]

O=C1c2ccccc2C(=O)c2cc(O)ccc21
Potency [1]: inconclusive: 4.86 µM [falling, full curve, poor fit]
Potency [2, 19]: active: 1.94 µM
activation [6]: inconclusive: 43.5%
Potency [7]: inactive
Potency [8]: active: 17.2 µM
Potency [15]: inconclusive: 13.7 µM
Potency [16]: inactive
Potency [9]: inconclusive: 30.7 µM [rising, partial curve]

Brc1ccc(Br)c(Br)c1
Potency [2, 19]: inconclusive: 61.5 µM [inhibitor] and inconclusive: 54.5 µM [inhibitor, partial curve]
Potency [17]: inconclusive: 21.8 µM [rising, partial curve, poor fit]
Potency [3]: inconclusive: 27.3 µM [cytotoxic, full curve]
Potency [5]: inconclusive: 49.3 µM [activator, partial curve, poor fit]
activity change, negative = inhibition [7]: inconclusive: 5.15%
activation [8]: inconclusive: -1.29% [phenotype inactive] [at 94.8 µM]
Potency [14]: inactive
Potency [18]: inactive
Potency [11]: inactive and inconclusive: 44.8 µM [inhibitor, partial curve]

Reference: PubChem BioAssay (Tox21)
